Results reported in the supplement of paper PMC10126150.
Values marked as one replicate rest on one cluster of the flow cell; about a third of the high ones do not repeat.

System: ATP
Assay: switch fluorescence ratio, 500 uM ATP over buffer (Cy3 cluster intensity, sum of 5 cycles each) (fold (ratio)); higher = stronger signal-on switching upon ATP binding; sequences stand for … in TCGTCGGCAGCGTCAGATGTGTATAAGAGACAGTTTTTTTTTTTTTTTTTTTTTTTTT…TC
Conditions: aptamer strand: ATP DNA aptamer (quencher-CACCTGGGGGAGTATTGCGGAGGAAGG + anchor), 100 nM annealed; ATP concentration: 500 uM; one replicate
Summary of the method: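 Cy3-labelled switching-strand clusters on a modified Illumina MiSeq flow-cell were annealed to 100 nM quencher-labelled ATP aptamer and imaged first in selection buffer, then after 15 min with 500 uM ATP at 22 °C. NaOH stripping and re-annealing separated each of five buffer/ATP cycles, and clusters outside 100-1000 RFU were excluded. The fluorescence ratio sums target-cycle Cy3 intensity over buffer-cycle Cy3 intensity per cluster and averages it per switch-domain sequence.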
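Also: ATP exposure 15 min at 22 °C before imaging.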

Row | Sequence | switch fluorescence ratio
1 | TAACGACTCA | 1.04
2 | GGGAATTTCT | 0.96
3 | TCTCGGGAGC | 1.01
4 | TCATCAAGCT | 1.03
5 | CTAGGGTTCG | 0.985
6 | ATTCTCTCGT | 0.951
7 | GGGCTGAAAG | 1.01
8 | TAAAATTCT | 1.02
9 | CAAGGAGGTC | 1.01
10 | CATCAGGAGA | 0.981
11 | AGACAACAAC | 1.06
12 | ACAACAGGAT | 0.981
13 | AATTATGGAG | 1.02
14 | CCTTCAGAGT | 1.08
15 | AGGCGTAGGT | 0.983
16 | GGAATTGGAG | 1.04
17 | GCTAGGGGCC | 1.04
18 | TGGAGGCGTT | 0.957
19 | TTTTTACTGA | 1.01
20 | AAACGAAAGT | 1.01
21 | ACGTTTGAAA | 0.998
22 | TTCGCTGCCA | 1.02
23 | TTCGCACCGC | 1.09
24 | ATTGGTGGAC | 0.989
25 | CCGGCGGATG | 0.996

Row | Sequence | switch fluorescence ratio
26 | ACGCTCACCT | 1.45
27 | ACGGGGGTGG | 1.06
28 | TAGGGCCCCA | 1.03
29 | CTAAGCGAAG | 0.989
30 | TGGAATTTCC | 1.06
31 | ATGGTTGTCC | 0.976
32 | CGATAGACAG | 0.982
33 | GTTACAGATT | 1.03
34 | TGAGCGGTTA | 1
35 | CATCCCGACG | 1.22
36 | GGTGTGATAG | 1
37 | ACCTCGGGGG | 1.74
38 | GCTCCCGAAT | 1.43
39 | CAAGGCTGAT | 1.02
40 | GCGGTAACAC | 1
41 | GAACTTTCAG | 0.997
42 | TTCGGAGGTG | 1.1
43 | TTAGAAATTG | 1.07
44 | GCGATAGTCA | 1
45 | CGCCACTTTC | 1.19
46 | GGAATTTAG | 0.977
47 | CATTTGGATA | 1.01
48 | AGGTCCTAGT | 0.999
49 | GGAGAAGATG | 1.03
50 | GAATATTAGG | 1.03

Row | Sequence | switch fluorescence ratio
51 | AACTAGACTA | 1.02
52 | TTCGCTTTCC | 1.36
53 | GCTCCCCGTC | 1.17
54 | ATACCATCCA | 0.992
55 | TATGTAGCT | 1.09
56 | CGTTCATGCC | 1.05
57 | AAATACTCGT | 1.13
58 | GCATAACGGC | 0.988
59 | CAGGTATGAC | 1.04
60 | TAAGTGGCGC | 1.04
61 | ATCTGTAGGC | 1.03
62 | GATGGTTAGC | 0.994
63 | CGGTTCGTCC | 0.996
64 | GTCTGATGAA | 0.94
65 | TAAGGAGGG | 1
66 | CCCGAAAGGC | 1.74
67 | AAATTTTCCT | 1.17
68 | GCATACGGCG | 1.05
69 | AGTCCACATT | 1.06
70 | GTCCTAACTC | 1.02
71 | CACAGCGGA | 1.01
72 | GGTCCGGACT | 0.972
73 | TAAATCCGCG | 1.17
74 | ACTTCTGGGA | 0.969
75 | TGCTATATTG | 0.99

Row | Sequence | switch fluorescence ratio
76 | ATCACGGCTG | 1.02
77 | GGGGACCCGG | 1.05
78 | TAGTTTCATC | 1
79 | GGTTACCGCA | 1.09
80 | GGGCTACTAC | 1.17
81 | CTCTGTAAGA | 1.14
82 | CCAGCTTGCG | 0.949
83 | AGCGGAGCGG | 1
84 | AAGGAACGTC | 0.984
85 | TAACCGATCG | 1.06
86 | CCTAAAAAC | 1.02
87 | GTCCCGTTTT | 1.02
88 | GCGCACAACT | 1.16
89 | GGATGTAGCC | 1.01
90 | GATACAGATG | 1.03
91 | TCAGGGAATC | 1.07
92 | TGCGTTGGTT | 0.989
93 | AGTCACCTTT | 0.982
94 | TAAATTGCAG | 1.01
95 | CATGGACTGG | 0.998
96 | GTTAAGTACT | 1.33
97 | AGAACTCTCG | 0.991
98 | AAAAGGTATA | 0.984
99 | ACTCTCGCTC | 3.5
100 | ACGGCTACCT | 1.37

Row | Sequence | switch fluorescence ratio
101 | TAAGCTTCCC | 1.94
102 | GGGACTAGCG | 0.988
103 | AGTAGTTAAT | 0.969
104 | ACATGTTTAC | 0.985
105 | GACACGAAT | 1.05
106 | CAGGTAGGCT | 1.05
107 | TGCCAACTCG | 1.02
108 | TATGCGAAC | 1.09
109 | TGATGTGATA | 1.01
110 | GATGCACTGT | 1.04
111 | AAAACTTGCC | 1.18
112 | CCTTTGGATC | 1.05
113 | TCGTATCGAT | 0.985
114 | ACGTGGCTGT | 1.01
115 | GTCCAGACTT | 1.02
116 | TAAGGAAGTA | 1
117 | ATGAAGTATA | 0.983
118 | GCACGGACGA | 1.27
119 | TAAGCTGGG | 0.975
120 | CATGGAAGTT | 0.989
121 | ATAGTTCGCT | 1
122 | ATGGGAATGT | 0.996
123 | TACTTGAGG | 1.02
124 | ACGCTGTTCT | 1.02
125 | GATACCGGCG | 1.04

Row | Sequence | switch fluorescence ratio
126 | TTTCTTCTGT | 0.961
127 | TATATCATTT | 1.01
128 | CAGGTCCGG | 0.986
129 | GGTTGGTATA | 1.05
130 | TGCTGTAGCG | 0.989
131 | AAATTATCGT | 1
132 | GAGAACATTC | 0.991
133 | AGTAGACGCT | 0.994
134 | GTAATAAAGC | 1.03
135 | CCGAGCCCAA | 2.5
136 | CTTGGTGCTA | 1.03
137 | TGGCAAATAT | 1.01
138 | TTTTGACTAA | 1.03
139 | GTCGCGGATT | 0.997
140 | AGAGGCAAAG | 1.04
141 | ATAGCGTGCT | 1.01
142 | CATTTTCATT | 1.02
143 | CTCAACGGAT | 1.03
144 | GTTGCAGTTT | 0.98
145 | AGCCAACTAG | 1.03
146 | ACCGCGGTAT | 1.03
147 | GCACGGGTA | 0.995
148 | TATCCCAATT | 1.09
149 | AGGGTGCCGC | 1.01
150 | CACAGAGTGC | 1.11

Row | Sequence | switch fluorescence ratio
151 | TAACATCCTT | 1
152 | CCGCGGAAGG | 1.01
153 | TGGGGAGTAC | 1.05
154 | AAAAATGTTT | 1.05
155 | GTAGGGGTAT | 0.969
156 | GATACGGGTA | 1.15
157 | GAAACATCAC | 1.22
158 | AACTCCCGTG | 1.38
159 | AAGTATTCCC | 1.05
160 | TAGTCAATTG | 0.995
161 | AGTCCTGCTA | 1.01
162 | TGACAGAGCG | 1.1
163 | GCCAAAAGGT | 1.01
164 | TTTATGTTGT | 0.995
165 | CGACTGCCCC | 1.21
166 | CGGGTAACGC | 0.991
167 | CCAAGGAGTG | 1.04
168 | AGGGATCACA | 1.03
169 | ATCCCCAATA | 1.3
170 | AGGCGCGTAA | 1.04
171 | CAGGAAGGGT | 0.986
172 | TTTTCAGACT | 1.04
173 | AAGCGCGGAT | 0.99
174 | GTTCTCTGTA | 1.02
175 | CAACGCTGTA | 1.05

Row | Sequence | switch fluorescence ratio
176 | ACTAGGTC | 1.05
177 | TTCCGGCGGC | 1.02
178 | GAAGCAGAAA | 1.16
179 | TAAACACTTT | 1.01
180 | CTACCTTTAG | 0.996
181 | CTCCGGACTT | 2.48
182 | AACTTCAAGT | 1.02
183 | TATGTTTTAC | 1.05
184 | GTTGCATGAT | 0.931
185 | CGTCAAGCGC | 1.1
186 | GTATGCAGTG | 0.973
187 | CCCTTCGCGG | 5.05
188 | CCTCATTCAG | 1.13
189 | GAGAGTCTCA | 1.01
190 | ACTAAACGAC | 1.14
191 | GTCATGGCCT | 0.992
192 | ATACCCTTTT | 0.964
193 | TCTGTTGGAG | 0.995
194 | TTTGTTATAC | 1.31
195 | GACCTAGCGA | 1.59
196 | TACTAATCCT | 1.1
197 | ATAGGAAATT | 0.995
198 | CTTCGCTGTT | 1.12
199 | GTGTGGGGTA | 0.992
200 | GTTTATCTGT | 0.978
